Hit rate of the full screen: of about 390,000 compounds, about 930 (0.24%) were called active. The shares of active, inactive and inconclusive entries below differ from those in the screen. Calls come from the whole dose curve; as a rule, active = well fitted activation curve with a large enough effect; inconclusive = small, poorly fitted or top-dose-only effect; inactive = no such curve, though single readings can be large or run the other way. Potencies beside an inconclusive call are fits to weak or partial responses and may not hold up.
Assay: qHTS for Suppressors of FUS Proteinopathy: Primary screen using FUS-linked yeast assay; note: nearly all actives have a fitted effect of over 55% in size;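 for growth rescue (activation): plate controls were DMSO vehicle for no effect and reference control for full effect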
Conditions: S. cerevisiae FUS-expressing, OD600, 24 h; Potency: growth rescue; growth rescue (activation): at 76.6 µM (top of the series)
Method in brief: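 Galactose (2%) drives FUS expression in yeast precultured in raffinose; seeding density OD 0.005. Test compounds incubated 24hr at 30C and 99% humidity before absorbance at 600 nm was measured.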
With `COc1ccc(-c2nc3cc(NC(=O)CSc4ccc(C)cc4)ccc3o2)cc1` the Potency was “inactive”. For `Cc1ccc(S(=O)(=O)c2nc(S(=O)(=O)c3ccccc3)sc2NCCCOC(C)C)cc1`, the Potency was inconclusive: 3.16 µM [activator, full curve]. With `CCc1ccc(NC(=O)Cn2ccn(-c3ccc(C)c(C)c3)c(=O)c2=O)cc1` the Potency was “inactive”. For `CCOc1ccc(N=Cc2c(O)n(-c3cccc(C)n3)c(=O)c3ccccc23)cc1`, the Potency was active: 8.91 µM. For `COc1ccc(C2=NN(C(=O)CSc3nc4ncc(Cl)cc4[nH]3)C(c3ccco3)C2)cc1` (stereo unspecified), the Potency was inconclusive: 28.2 µM [activator, single point]. With `CC(=O)c1ccc(N2CCN(C(=O)C3CCN(S(=O)(=O)c4cn(C)cn4)CC3)CC2)cc1` the Potency was “inactive”. In the case of `C[C@@]12C(=O)N(Cc3ccc(Cl)cc3)CC(=O)N1[C@H]1c3ccccc3OC[C@@H]1[C@@H]2c1ccccc1`, the Potency is reported as inconclusive: 28.2 µM [activator, single point]. In the case of `CCOC(=O)c1c(Nc2ccc(OC)cc2)nnc(-c2ccccc2)c1-c1ccccc1`, the Potency is reported as inconclusive: 39.8 µM [activator, single point]. With `Cc1cccc(CN(CC(=O)N/N=C/c2ccco2)S(=O)(=O)c2ccc(Cl)cc2)c1` the Potency was inconclusive: 50.1 µM [activator, single point]. With `COc1cc2c(cc1OC)C(C)N(C(=O)c1cc3n(n1)C(C(F)(F)F)CC(c1ccco1)N3)CC2` (stereo unspecified) the Potency was inconclusive: 31.6 µM [activator, single point]. For `CCC(C)(C)n1nnnc1CN1CCC(c2nc3ccc(C)cc3[nH]2)CC1`, the growth rescue (activation) was inconclusive: 66% [activator]. With `COc1cccc(OC)c1C(=O)NCCc1csc(-c2ccc(Cl)cc2)n1` the Potency was “inactive”. For `O=C(NCC(c1ccco1)N1CCN(c2ccc(F)cc2)CC1)C(=O)NC1CCCC1` (stereo unspecified), the Potency was “inactive”. With `Cc1ccc([C@H]2C[C@H](O)[C@@H](n3cc(C4CC4)nn3)CN2Cc2cccs2)cc1` the Potency was inconclusive: 44.7 µM [activator, single point]. For `CCOc1ccccc1CNC(=O)c1cn(C)c(=O)c2c1c1ccccc1n2C`, the Potency was “inactive”. With `Cc1nnnn1/C(=C\c1ccccc1)C(=O)OCC(=O)Nc1cccc(S(=O)(=O)N(C)C)c1` the Potency was inconclusive: 50.1 µM [activator, single point]. With `NC(=S)Nc1cccc2cc3ccccc3cc12` the Potency was “inactive”. For `C[C@@H](C(=O)NCCc1c[nH]c2ccccc12)[C@H]1C[C@]1(C)[C@H](NC(=O)OCc1ccccc1)c1ccccc1`, the Potency was inconclusive: 12.6 µM [activator, partial curve]. With `COc1ccccc1N1CCN(C(=O)c2c(C)oc3ncn(C)c(=O)c23)CC1` the Potency was “inactive”. In the case of `COCCN1C(=O)C2=C(C1=O)C1N(C)c3ccccc3[C@@]13C[C@@H](CO)N(S(=O)(=O)c1ccc(OC)cc1)C3=N2` (stereo partly specified), the Potency is reported as inconclusive: 20 µM [activator, single point]. For `CN(C)c1cccc(-c2cnc(N3CCC(C(N)=O)CC3)s2)c1`, the Potency was inconclusive: 20 µM [activator, partial curve]. With `O=C1OC[C@@H]2CCCN2C(=O)[C@H](CC(=O)N(CCO)Cc2ccccc2)C/C=C\CC[C@@H]1Cc1ccc(F)cc1` the Potency was inconclusive: 17.8 µM [activator, partial curve, poor fit]. In the case of `O=C1CCC[C@H]2C[C@H](NCc3ccco3)CC[C@]23CCCN13`, the Potency is reported as “inactive”. For `CCc1cc2c(cc3c(=O)n(CCCC(=O)NCc4cccc(Cl)c4)ncn32)s1`, the Potency was “inactive”. For `CCOC(=O)c1c(C)[nH]c(C(=O)CN2CC(C)OC(C)C2)c1C` (stereo unspecified), the Potency was “inactive”. For `O=C(CSC1=Nc2ccccc2C2=NC(CCC(=O)NC3CCCCC3)C(=O)N12)Nc1cccc(Cl)c1` (stereo unspecified), the Potency was inconclusive: 35.5 µM [activator, single point]. In the case of `O=C(Nc1ccc(F)cc1)OCCN1C(=O)CCC12CCC(c1ccc(Cl)cc1)CC2` (stereo unspecified), the Potency is reported as “inactive”. For `COc1cccc(C(=O)NCC(=O)OC(C)C(=O)NC23CC4CC(CC(C4)C2)C3)c1` (stereo unspecified), the Potency was inconclusive: 8.91 µM [activator, partial curve]. With `COc1ccc(C2=Nc3ccccc3N(C(=O)c3ccc4ncccc4c3)C2C(=O)NC2CCCC2)cc1` (stereo unspecified) the Potency was inconclusive: 50.1 µM [activator, single point]. For `O=C1[C@H]2[C@H](C=CC[C@H]2C(=O)N2CCN(c3ccccc3)CC2)CCN1Cc1ccc(Cl)c(Cl)c1`, the Potency was inconclusive: 20 µM [activator, partial curve, poor fit]. With `COc1cc(/C=C/c2nnc3c4ccccc4ncn23)cc(OC)c1OC` the Potency was inconclusive: 22.4 µM [activator, partial curve, poor fit]. With `O=C(C1CCCN1S(=O)(=O)c1ccc(F)cc1)N1CCc2ccccc2C1` (stereo unspecified) the Potency was “inactive”. With `COc1ccc(-c2coc3cc(OC(C)=O)ccc3c2=S)cc1` the Potency was “inactive”. In the case of `COc1ccccc1Nc1nc(-c2sc(NC(=O)CC(C)C)nc2C)cs1`, the Potency is reported as inconclusive: 50.1 µM [activator, single point]. For `N#Cc1ncc(-c2ccc3c(c2)OCCOCCOCCOCCOCCO3)nc1C#N`, the Potency was “inactive”. For `O=C(Cc1ccc(S(=O)(=O)N2CCOCC2)s1)N1CCN(S(=O)(=O)c2ccccc2[N+](=O)[O-])CC1`, the Potency was active: 22.4 µM. For `Cc1nn(-c2ccccc2)c(Cl)c1C(=O)Nc1nnc(C2CCCC2)s1`, the Potency was inconclusive: 50.1 µM [activator, single point]. For `COc1ccc(S(=O)(=O)Nc2cccc3c2O[C@H](CN(C)C(=O)Nc2ccc(C(F)(F)F)cc2)[C@@H](C)CN([C@H](C)CO)C3=O)cc1`, the Potency was inconclusive: 25.1 µM [activator, partial curve, poor fit]. With `O=C(/C=C(\O)c1ccc(Cl)cc1)C(=O)NNC(=O)C(O)(c1ccccc1)c1ccccc1` the Potency was inconclusive: 20 µM [activator, single point]. In the case of `Cc1ccc(CNC(=O)[C@H](C)[C@H]2C[C@]2(C)[C@H](NC(=O)OCc2ccccc2)c2ccccc2)o1`, the Potency is reported as “inactive”. For `CCN1CC=C2C(C#N)=C(N)C(C#N)(C#N)C(CCc3ccccc3)C2C1` (stereo unspecified), the Potency was inconclusive: 39.8 µM [activator, partial curve, poor fit].
Potency is the fitted concentration of half-maximal effect; tags give direction and shape of the fitted curve.
